Out of some 360,000 compounds screened, about 7,500 (2.1%) were called active. Inconclusive results, whose numbers are uncertain, are shown with a selection of clear calls. Calls come from the whole dose curve; as a rule, active = well fitted cell-killing curve with a large enough effect; inconclusive = small, poorly fitted or top-dose-only effect, or effect the other way, or another doubt; inactive = no such curve, though single readings can be large or run the other way. No potency is given beside an inconclusive call; the fits are too rough.
assay: qHTS for induction of synthetic lethality in tumor cells producing 2HG: qHTS for the HT-1080-IDH1KD cell line; conditions: HT-1080 IDH1 knockdown viability, ATP luminescence, 48 h; activity, negative = toxicity: at 46.1 µM (top of the series) unless noted;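 for activity, negative = toxicity: 0% = DMSO wells and -100% = cell-free medium wells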
Procedure, shortened: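 In this qHTS, HT-1080 cells depleted of IDH1 are exposed for 48 h at 37 °C to compound titrations. Toxicity is scored from CellTiter-Glo luminescence, with DMSO as full viability and medium alone as none.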
Potency is the fitted concentration of half-maximal effect; tags give direction and shape of the fitted curve.

Which Potency does the source give for `O=C(COC(=O)c1cccc(Br)c1)NC(=O)NC1CCCC1` here?
Its Potency is inconclusive [cytotoxic, single point].

For `OC(c1ccccc1)c1nc(-c2ccc(Cl)cc2)cs1` (centres undefined), which Potency is on record?
The Potency was inconclusive [cytotoxic, single point].

For `CN1C(=O)[C@@](O)(c2cn(C)c3ccccc23)c2cc(F)ccc21`, which Potency is on record?
Its Potency is “inactive”.

With `C/C(=N\Nc1ccc(Cl)c(Cl)c1)c1ccc(-n2ccnc2)cc1` as the compound, how does the Potency read?
The Potency was “inactive”.

For `Cc1ccc(C)c(S(=O)(=O)N2CCCC2CNC(=O)C(=O)NCc2ccccn2)c1` (centres undefined), which Potency is on record?
The Potency was “inactive”.

For `CC(Oc1ccccc1)C(=O)N(CCC1=CCCCC1)c1c(N)n(Cc2ccccc2)c(=O)[nH]c1=O` (centres undefined), which Potency is on record?
Its Potency is inconclusive [cytotoxic, single point].

With `Cc1cc(C)c(C(O)c2ncc(-c3ccccc3Cl)[nH]2)c(C)c1` (centres undefined) as the compound, how does the Potency read?
The Potency was inconclusive [cytotoxic, partial curve].

Which Potency does the source give for `Cc1cc(C)c(C)c(S(=O)(=O)NCCCn2ccnc2)c1C` here?
The Potency was inconclusive [cytotoxic, single point].

For `CC(C)(C)c1cc(CCC(=O)NNC(=S)NC(=O)c2ccccc2)cc(C(C)(C)C)c1O`, which Potency is on record?
The Potency was inconclusive [cytotoxic, single point].

For `COc1cc(NS(=O)(=O)c2ccc3ccccc3c2)c2ncccc2c1`, which Potency is on record?
The Potency was inconclusive [cytotoxic, partial curve].

With `N#Cc1ccc(NC(=O)C2CC(c3ccc(F)cc3)=NO2)cc1` (centres undefined) as the compound, how does the activity, negative = toxicity read?
Its activity, negative = toxicity is inconclusive: -34% [cytotoxic].

Which Potency does the source give for `O=C1c2ccccc2CCC12OC2c1ccncc1` (centres undefined) here?
The Potency was “inactive”.

With `COc1ccc(C(=O)NNC(=S)NC(=O)c2cccs2)cc1` as the compound, how does the Potency read?
Its Potency is inconclusive [cytotoxic, partial curve].

With `O=C(NCc1ccco1)c1cc2c(s1)CSC2` as the compound, how does the Potency read?
Its Potency is inconclusive [cytotoxic, single point].

Which Potency does the source give for `C[C@@H]1CN(Cc2nc(Cc3ccccc3F)no2)C[C@H](C)O1` here?
Its Potency is inconclusive [rising, single point].

With `COc1ccc(NC(=O)CSc2ncnc3[nH]ncc23)cc1` as the compound, how does the Potency read?
The Potency was inconclusive [cytotoxic, single point].

With `C=CC[C@@H](CC(=O)N(CCO)Cc1ccccc1)C(=O)NC[C@H](OC(=O)[C@@H](CC=C)Cc1ccc(F)cc1)c1ccccc1` as the compound, how does the Potency read?
Its Potency is inconclusive [cytotoxic, single point].

Which Potency does the source give for `Cc1ccc(N(CC(=O)NC2CCCCC2)C(=O)CNC(=O)c2ccco2)c(C)c1` here?
The Potency was “inactive”.

With `COc1ccccc1NC(=O)O/N=C(\N)c1ccccc1` as the compound, how does the Potency read?
The Potency was inconclusive [rising, single point].
